Reference: PubChem BioAssay AID1671193 (National Center for Advancing Translational Sciences (NCATS), 2021)
Several values for one entry are separate records, joined by “and”; a condition that tells them apart may be missing. Equal values may be shown once. Out of some 150,000 compounds screened, about 180 (0.12%) were called active. The shares of active, inactive and inconclusive entries below differ from those in the screen. Calls follow the shape of the dose curve; as a rule, active = well fitted cell-killing curve with a large enough effect; inconclusive = small, poorly fitted or top-dose-only effect, or effect the other way; inactive = flat fitted curve, though single readings scatter. Potencies beside an inconclusive call are fits to weak or partial responses and may not hold up.

Test: GF-AFC viability counterscreen for inhibitors of alpha-synuclein gene (SNCA) expression; also: nearly all actives have a fitted effect of over 30% in size;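 as to activity change, negative = cytotoxicity: 0% = DMSO-treated cells and -100% = medium-only wells without cells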
Conditions: HEK-293-SNCA-luc viability, GF-AFC fluorescence, 24 h; activity change, negative = cytotoxicity: at 57.1 µM (top of the series) unless noted
Outline: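 Cytotoxicity counterscreen: after 24 h compound treatment of genome-edited SNCA-luciferase HEK-293 cells, live-cell protease substrate GF-AFC read by fluorescence after 30 min; activity scaled between DMSO (0%) and medium-only (-100%), curves Hill-fitted.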
Potency is read from the fitted curve at half-maximal effect; tags tell the direction and shape of the fitted curve.

Row | SMILES | activity change, negative = cytotoxicity | Potency
1 | COc1cccc(CC(=O)N2CCN(C(=O)c3nnn4c3COC(c3ccc(C)cc3)C4)CC2)c1 (configuration not stated) | inactive: -19.4% | 
2 | Nc1ccc2c(N3CCCCC3)ncnc2c1 | inactive: -7.27% | 
3 | CN(C)c1ccc(-c2nc(-c3ccncc3)no2)cc1[N+](=O)[O-] |  | inconclusive: 2.82 µM [cytotoxic, partial curve, poor fit]
4 | O=C(NCC1CC1)c1cn2cc(-c3ccc(C(F)(F)F)cc3)sc2n1 |  | inconclusive: 39.8 µM [cytotoxic, partial curve, poor fit]
5 | COc1ccc(-c2nnc(C[C@@H]3C[C@@H](C(C)C)[C@H](CN(C)CCc4ccccn4)C=C3C)o2)cc1 |  | inconclusive: 25.1 µM [cytotoxic, partial curve, poor fit]
6 | O=C(Nc1ccccc1F)C1CCN(C(=O)c2ncn3c2COC(c2ccc(F)cc2)C3)CC1 (configuration not stated) | inactive: -14.1% | 
7 | CC1(C)CC(=O)c2cc(-c3nc(-c4ccc(Br)cc4)cs3)c(=O)n(-c3ccccc3)c2C1 |  | inconclusive: 1.41 µM [rising, full curve, poor fit]
8 | COc1ncccc1-c1nc(-c2c(C)noc2C)cc2c1cc(C)n2C | inactive: 2.35% [at 87.6 µM] | 
9 | COc1ccc(C)cc1N(CC(=O)N1CCC(C)CC1)S(=O)(=O)c1ccc(C)cc1 |  | inconclusive: 14.1 µM [cytotoxic, partial curve, poor fit]
10 | Cc1noc(-c2cccn3c(CNC(=O)c4ccccc4)nnc23)n1 | inactive: 0.401% | 
11 | CCN1c2cc(C(=O)NCc3ccc(SC)cc3)ccc2C(=O)N2CCCCCC21 (configuration not stated) |  | inconclusive: 3.55 µM [rising, single point]
12 | COc1cccc(N2C(=O)NC(=NC3CCCC3)C23CCCN(Cc2ccc(N(C)C)cc2)C3)c1 (configuration not stated) | inactive: -13.2% | 
13 | COc1cc(C(=O)NC2CCN(C)CC2)ccc1Nc1ncc2c(n1)N(C1CCCC1)CC(F)(F)C(=O)N2C |  | inconclusive: 10.6 µM [cytotoxic, partial curve, poor fit]
14 | CN1CCN(c2nc(-c3ccc(N(C)C)cc3)nc3ccccc23)CC1 |  | inconclusive: 39.8 µM [cytotoxic, single point]
15 | COc1ccc(CNc2nc(N(CCO)CCO)nc3c2ncn3C(C)C)cc1 |  | inconclusive: 7.52 µM [cytotoxic, single point]
16 | CN1CCN(c2ncc3nc(-c4cccc(C#N)c4)c(=O)n(C)c3n2)CC1 |  | inconclusive: 25.1 µM [rising, partial curve]
17 | CCNC(=O)N1CCC(OC2CCN(Cc3ccccc3)CC2)CC1 | inactive: -6.6% | 
18 | Cc1ccc(-c2nc(-c3cccs3)c(-c3cccs3)[nH]2)cc1 | inactive: -2.9% | 
19 | COc1ccc(CN2Cc3[nH]nc(-c4ccc(N5CCN(C)CC5)cc4)c3CC2=O)cc1 | inactive: 6.43% [at 87.6 µM] | 
20 | O=C1[C@@H]2C[C@@H](CN2Cc2cnc3ccccc3c2)Oc2ccccc2N1CC1CC1 |  | inconclusive: 31.6 µM [cytotoxic, single point]
21 | CCC(C(=O)O)C1CCC(C)C(C(C)C(O)C(C)C(=O)C(CC)C2OC3(C=CC(O)[C@@]4(CC[C@](C)(C5CC[C@@](O)(CC)C(C)O5)O4)O3)C(C)CC2C)O1 (some centres not stated) |  | inconclusive: 4.29 µM [cytotoxic, full curve]

Row | SMILES | activity change, negative = cytotoxicity | Potency
22 | CC(C)C[C@@H]1N[C@H](C(=O)O)Cc2cn(Cc3ccncc3)c3cccc1c23 | inactive: 2.16% | 
23 | CN1CCN(C(=O)C2CCc3nnc(-c4cccc(C(F)(F)F)c4)n32)CC1 (configuration not stated) | inactive: -7.34% | 
24 | CC1=C[C@@H](CNC(=O)c2ccncc2)[C@H](C(C)C)C[C@H]1Cc1nnc(-c2ccncc2)o1 | inactive: -22.4% [at 87.6 µM] | 
25 | COC(=O)[C@H](Cc1ccc(OC)cc1)NC(=O)[C@H]1CN(C(=O)c2ccc(N(C)C)cc2)CCN1C(=O)C1CCCCC1 |  | inconclusive: 39.8 µM [cytotoxic, single point]
26 | O=C(NCCN1CCCC1)C1CCN(C(=O)N2CC3CC(C2)[C@H]2CCCC(=O)N2C3)CC1 (some centres not stated) |  | inconclusive: 15.8 µM [rising, partial curve, poor fit]
27 | O=S(=O)(NCC(c1ccco1)N1CCN(c2ccc(F)cc2)CC1)c1cc(F)ccc1F (configuration not stated) |  | inconclusive: 6.31 µM [rising, single point]
28 | O=C(O)CCCNC(=O)Cn1nc2c(cc1=O)CCCCC2 | inactive: -1.86% | 
29 | Cc1cc(=O)n(CC(=O)Nc2c(C)cccc2C)c(-c2ccc(F)cc2)n1 |  | inconclusive: 3.98 µM [cytotoxic, partial curve, poor fit]
30 | CN1CCC(CNc2ccc3ncc(-c4cccc(OC(F)(F)F)c4)n3n2)CC1 |  | inconclusive: 37.7 µM [cytotoxic, single point]
31 | CN(C)c1ccc(-c2ccnc(N[C@H]3CO[C@H]4[C@@H]3OC[C@H]4OC(=O)NCc3ccccc3)n2)cc1 | inactive: -6.39% | 
32 | CCc1ccccc1N1C(=O)N(Cc2cc(=O)n3ccccc3n2)c2ccccc2S1(=O)=O |  | inconclusive: 22.4 µM [cytotoxic, partial curve, poor fit]
33 | N#Cc1cccc(C(=O)Nc2ccc([C@@H](O)[C@H]3COCC(=O)N3)cc2)c1 | inactive: 1.28% [at 87.6 µM] | 
34 | O=C1NC2(CCCN(C(=O)c3ccccc3F)C2)Oc2ccccc21 (configuration not stated) |  | inconclusive: 35.5 µM [cytotoxic, single point]
35 | CCNc1ncc2nc(-c3cc(F)cc(F)c3)c(=O)n(CCC#N)c2n1 |  | inconclusive: 17.8 µM [rising, partial curve, poor fit]
36 | CCOc1nccnc1NC1CCN(C(=O)C2CCCO2)CC1 (configuration not stated) | inactive: -6.19% | 
37 | O=C(NC1C[C@H]2CC[C@@H](C1)N2C(=O)C1CCCCCC1)c1ccc(F)cc1 (some centres not stated) |  | inconclusive: 1.26 µM [cytotoxic, full curve, poor fit]
38 | CN(C)C[C@H]1C[C@@H](CO)CN(C(=O)CCc2ccncc2)C1 |  | inconclusive: 39.8 µM [cytotoxic, single point]
39 | Cc1cccc(OCC(=O)N2CCC(n3cc(-c4nc(-c5ccccc5)no4)nn3)C2)c1 (configuration not stated) |  | inconclusive: 22.4 µM [cytotoxic, single point]
40 | Cc1ccc(NC(=O)Cn2cc(S(=O)(=O)Cc3ccccc3)c3ccccc32)cc1C |  | inconclusive: 39.8 µM [cytotoxic, single point]
41 | COc1cc(C=CC(=O)CC(=O)C=Cc2ccc(O)c(OC)c2)ccc1O |  | inconclusive: 55.5 µM [cytotoxic, partial curve]
42 | O=C(N1CCC(c2nc(-c3ccccc3)no2)C1)C1(c2ccccc2)CC1 (configuration not stated) | inactive: -8.99% | 

Row | SMILES | activity change, negative = cytotoxicity | Potency
43 | Cn1ccnc1C(=O)N1CCC(N2C(=O)C3(CCCCC3)C2c2ccccc2)CC1 (configuration not stated) | inactive: 11.9% | 
44 | Cc1ccc(-n2nc(C)c([C@@H]3C=C[C@@H](NC(=O)Nc4ccc(Cl)cc4)C3)c2C)cc1Cl |  | inconclusive: 31.6 µM [cytotoxic, single point]
45 | COc1cccc(NC(=O)Cn2c(=O)n(-c3ccc(C)cc3)c(=O)c3ccccc32)c1 |  | inconclusive: 3.55 µM [cytotoxic, full curve]
46 | CCCC(=O)N1c2nc(-c3ccco3)nn2C2(CCCCC2)[C@@H]2CCCC[C@@H]21 |  | inconclusive: 22.4 µM [cytotoxic, single point]
47 | c1ccc(-c2ccccc2Nc2cnc3ccc(-n4ccnc4)nn23)cc1 |  | inconclusive: 31.6 µM [cytotoxic, single point]
48 | COc1ccc(-c2noc(CC3CCN(C(=O)COc4ccc(C)cc4)CC3)n2)cc1 | inactive: -23.3% | 
49 | O=C1c2c(nc(COc3cccc(Cl)c3)n2Cc2ccccc2)NCCN1CC1CC1 |  | inconclusive: 56.2 µM [cytotoxic, single point]
50 | COc1ccc(C(=O)N2C[C@@H]3C[C@H](C2)c2c(NS(=O)(=O)c4ccccc4)ccc(=O)n2C3)cc1 | inactive: -5.88% | 
51 | COc1cc(OC)cc(OCc2nc3c(n2Cc2ccccc2)C(=O)N(Cc2cccc(Cl)c2)CCN3)c1 |  | inconclusive: 28.2 µM [cytotoxic, partial curve, poor fit]
52 | Cc1noc(C)c1S(=O)(=O)N(CC(=O)Nc1ccc(C(F)(F)F)cc1)c1ccc(C(C)C)cc1 |  | inconclusive: 0.282 µM [cytotoxic, full curve, poor fit]
53 | COCCO[C@H]1C(=O)N(C2CCN(C(=O)Nc3ccccc3F)CC2)[C@H]1c1ccncc1 |  | inconclusive: 6.31 µM [cytotoxic, single point]
54 | Cn1cc(CN2CCNc3cc(Nc4ccccc4)ncc3C2)cn1 |  | inconclusive: 6.31 µM [cytotoxic, full curve, poor fit]
55 | COCCn1c(=O)c(-c2ccc(OC)cc2)nc2cnc(N3CCOCC3)nc21 |  | inconclusive: 11.2 µM [rising, partial curve]
56 | O=C(Nc1ccon1)c1cnc2n[nH]c(-c3ccccc3)c2n1 |  | inconclusive: 39.8 µM [cytotoxic, single point]
57 | CN1CCN(Cc2ccc(NC(=O)Nc3ccc(Oc4cc(NC(=O)C5CC5)ncn4)cc3)cc2C(F)(F)F)CC1 |  | inconclusive: 1.71 µM [cytotoxic, full curve] and inconclusive: 1.06 µM [cytotoxic, full curve, poor fit]
58 | CC(=O)N1CC2(CCN(C(=O)c3ccc(Cl)cc3)CC2)Cc2ccccc21 |  | inconclusive: 17.8 µM [cytotoxic, partial curve, poor fit]
59 | CCOCCn1nc(C)cc1C(=O)N1CCC2(CC1)[C@H](O)C[C@@H]2OCC |  | inconclusive: 31.6 µM [cytotoxic, partial curve, poor fit]
60 | O=C(Nc1ccc2ncnc(N3CCCCC3)c2c1)c1ccsc1 |  | inconclusive: 17.8 µM [cytotoxic, partial curve, poor fit]
61 | O=C(NCCc1ccccn1)c1ccc(OC2CCNCC2)nc1 | inactive: -8.1% | 
62 | CCOc1ccc(C2=CC(c3cc(Br)ccc3F)n3ncnc3N2)cc1Cl (configuration not stated) |  | inconclusive: 31.6 µM [rising, partial curve]
